About 64,000 (15%) of roughly 420,000 compounds were called active. Inconclusive results, whose numbers are uncertain, are shown with a selection of clear calls. Calls come from the whole dose curve; as a rule, active = well fitted inhibition curve with a large enough effect; inconclusive = small, poorly fitted or top-dose-only effect; inactive = flat fitted curve, though single readings scatter. No potency is given beside an inconclusive call; the fits are too rough.
test: qHTS for Inhibitors of human tyrosyl-DNA phosphodiesterase 1 (TDP1): qHTS in cells in absence of CPT; conditions: DT40 Tdp1-/- hTDP1 cells, no CPT, ATP luminescence, 48 h; activity change, negative = growth inhibition: at 46.2 µM (top of the series) unless noted; note: nearly all actives have a fitted effect of over 55% in size
How it was run: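 Compound effects on proliferation are scored in DT40 Tdp1-/-;hTDP1 cells in the absence of CPT. ATP levels (CellTiter-Glo luminescence) are recorded after a ≥48 hr, 37 °C incubation.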
% is set by controls: 0 for no effect and ±100 for the full control effect; potency is the fitted concentration of half-maximal effect; tags give direction and shape of the fitted curve.

| Compound | activity change, negative = growth inhibition | Potency |
| --- | --- | --- |
| Cc1occc1C(=O)Nc1ccc(S(=O)(=O)N2CCCC2)cc1 | inconclusive: -36.3% [inhibitor] |  |
| ClC(Cl)(Cl)c1nc(N/N=C/c2ccncc2)c2ccccc2n1 |  | inconclusive [inhibitor, single point] |
| CCOC(=O)CCCNC(=O)CN1CCC(c2nc3ccccc3s2)CC1 |  | inconclusive [inhibitor, single point] |
| Cn1c(C(=O)NCCCN2CCCCCC2)cc2c(=O)n(C)c3ccccc3c21 |  | inconclusive [inhibitor, single point] |
| COCCNC(=S)N1CCC(NC(=O)C23CC4CC(CC(C4)C2)C3)CC1 | inactive: -11.4% |  |
| CC(Oc1ccc(Cl)cc1Cl)C(=O)Nc1cccc(O)c1 (centres undefined) | inactive: 0.125% |  |
| Cc1cc(N2CCCC2=O)ccc1S(=O)(=O)NCCOc1ccccc1 |  | active: 14.6 µM |
| O=C(Nc1ccccc1N1CCCCC1)C1CCN(S(=O)(=O)c2cccc(C(F)(F)F)c2)CC1 | inactive: -15.5% |  |
| COc1cccc(N2CCN(c3nc(-c4ccccc4C)cc(=O)[nH]3)CC2)c1 |  | inconclusive [inhibitor, single point] |
| CC(C)c1nc2c(c(=O)c3ccccc3n2C)c(=O)n1CCc1ccccc1 |  | active: 9.2 µM |
| Cc1nnsc1C(=O)Nc1ccc(S(=O)(=O)N2CCCCC2)cc1 |  | inconclusive [inhibitor, single point] |
| O=C(N/N=C/c1ccc([N+](=O)[O-])cc1)c1cccnc1 | inactive: -22.9% |  |
| OC1(c2ccc(F)cc2)CSC(=Nc2cccnc2)N1Cc1ccco1 (centres undefined) |  | inconclusive [inhibitor, single point] |
| CCOCCCNC(=O)C(c1ccc(C)cc1)N(Cc1cccs1)C(=O)c1ccccc1O (centres undefined) |  | inconclusive [inhibitor, partial curve] |
| COc1ccc(-n2nc3c(N4CCC(C(=O)N5CCCCCC5)CC4)nnc(C)c3c2C)cc1 |  | inconclusive [inhibitor, single point] |
| NC(=O)c1ncn([C@@H]2O[C@H](CNCc3cccc(OC4CCCC4)c3)[C@@H](O)[C@H]2O)n1 | inactive: -16.4% |  |
| NC(N)=NCCCC(NC(=O)c1ccccc1)C(=O)Nc1ccc([N+](=O)[O-])cc1 (centres undefined) | inactive: -12.3% |  |
| Nc1ncnc(N)c1NC(=O)c1cc(Cl)c(OCc2ccccc2)c(Cl)c1 | inactive: 0.0444% |  |
| COc1ccc(CNC(=O)C2CCN(S(=O)(=O)c3ccc(C)cc3)CC2)cc1 |  | inconclusive [inhibitor, single point] |
| CC(=O)N1N=C(c2ccc(Cl)cc2)CC1c1ccc([N+](=O)[O-])cc1 (centres undefined) |  | inconclusive [inhibitor, single point] |
| COc1cccc(NC(=O)N2CCN(c3nc(-c4cccc(OC)c4)cs3)CC2)c1 |  | active: 5.17 µM |
| Cn1c(CNC(=O)CCNC(=O)c2ccccc2)cc(=O)n(C)c1=O | inactive: 1.44% |  |
| COc1cc(F)ccc1-c1csc(C(O)c2ccc(F)cc2)n1 (centres undefined) |  | inconclusive [inhibitor, single point] |
| COc1ccc(C(=O)NCC(c2ccc3c(c2)OCO3)N2CCN(c3ccc(OC)cc3)CC2)cc1 (centres undefined) |  | active: 5.8 µM |
| O=C(Nc1ccccc1F)c1ccc(-c2ccccc2)s1 | inactive: -21.8% |  |

| Compound | activity change, negative = growth inhibition | Potency |
| --- | --- | --- |
| CCOC(=O)CSc1nc(C)c(C(C)=O)cc1C#N | inactive: 4.06% |  |
| COc1ccc(OC)c(CC(NC(C)=O)C(=O)NC2CCN(c3c(Cc4ccccc4)c(C)nc4ncnn34)CC2)c1 (centres undefined) |  | inconclusive [inhibitor, partial curve] |
| COc1ccc(CNc2cc(-c3ccoc3)ncn2)c(OC)c1 | inconclusive: -32% [inhibitor] |  |
| O=C(NNc1ccccc1)C(=O)NNc1ccccc1 | inconclusive: -33.7% [inhibitor] |  |
| CCc1ccc(NC(=O)c2ccccc2Br)cc1 |  | inconclusive [inhibitor, single point] |
| O=C(NNC(=O)c1ccncc1)Nc1ccc(N=Nc2ccccc2)cc1 |  | inconclusive [inhibitor, single point] |
| COc1ccc(S(=O)(=O)N2CCCCC2)cc1NC(=O)c1ccc2ccccc2n1 |  | active: 13 µM |
| COc1ccc(CCNc2ncnc3c2c(C)c(C)n3CCO)cc1OC |  | active: 8.2 µM |
| CCOC(=O)Nc1ccc(S(=O)(=O)N2CCC(c3nc4ccccc4[nH]3)CC2)cc1 |  | inconclusive [inhibitor, single point] |
| CC1CC(C)(C)CC2(C1)NC(=O)N(CC(=O)Nc1cc([N+](=O)[O-])ccc1F)C2=O (centres undefined) |  | active: 10.3 µM |
| COc1ccccc1C(=O)C1CCCN(C(=O)c2cccc(-n3cccn3)c2)C1 (centres undefined) |  | inconclusive [inhibitor, single point] |
| COc1ccc(NC(=O)CSc2nnc(-c3ccoc3C)n2CCc2ccccc2)cc1 | inconclusive: -33.9% [inhibitor] |  |
| CSc1nsc(SCC(=O)N2CCCc3ccccc32)n1 |  | active: 29.1 µM |
| CCOc1cc(/C=N/NC(=O)COc2ccc(C)cc2)ccc1OC(=O)c1cccs1 |  | inconclusive [inhibitor, single point] |
| O=C1Nc2ccccc2N=C(c2ccc3c(c2)OCO3)C1N(C(=O)c1ccnc2ccccc12)c1ccccc1 (centres undefined) |  | active: 18.4 µM |
| CCN(CC)C(=O)c1cc(C(C)(C)C)c(O)c(C(C)(C)C)c1 |  | inconclusive [inhibitor, single point] |
| Cc1ccc(Nc2cc(C)c3ccc(O)cc3n2)cc1C |  | active: 18.4 µM |
| CSc1ccc(CN2C(=O)C(C)Sc3ccc(C(C)=O)cc32)cc1 (centres undefined) |  | inconclusive [inhibitor, single point] |
| Cc1ccc(S(=O)(=O)Nc2cc(C(F)(F)F)ccc2N2CCOCC2)cc1C |  | inconclusive [inhibitor, partial curve, poor fit] |
| Cc1ccc(C(=O)NC(=S)N2CCN(c3cc(C)ccc3C)CC2)cc1 |  | inconclusive [inhibitor, single point] |
| O=S(=O)(Nc1ccc2c(c1)OCO2)c1ccc(Cl)cc1F | inactive: 8.41% |  |
| CCN(CC(=O)NC(C)(C)C)C(=O)c1ccc2c(c1)S(=O)(=O)c1ccccc1C2=O | inactive: -7.38% |  |
| COc1ccc(/C=C/C(=O)Nc2cccc(S(=O)(=O)NC3=NCCCCC3)c2)cc1 |  | active: 23.1 µM |
| COc1cc(C(=O)NCc2cc3ccccc3n2C)cc(OC)c1OC |  | inconclusive [inhibitor, single point] |
| c1ccc(Cn2c(-c3ccco3)nc3nc4ccccc4nc32)cc1 |  | inconclusive [inhibitor, single point] |

| Compound | activity change, negative = growth inhibition | Potency |
| --- | --- | --- |
| Cc1ccc(Nc2cc(C(=O)NCc3cccs3)c3ccccc3n2)c(C)c1 | inactive: -25.2% |  |
| O=C(Nc1cccc(O)c1)c1cccc(S(=O)(=O)N2CCCCCC2)c1 |  | inconclusive [inhibitor, single point] |
| COc1ccc(/C=C2\SC(=O)N(CCNC(=O)Cc3coc4cc(OC)ccc34)C2=O)cc1 |  | inconclusive [inhibitor, single point] |
| CN(Cc1ccc(C(C)(C)C)cc1)Cc1cccc2ccccc12 |  | inconclusive [inhibitor, single point] |
| COc1ccccc1CN1CCN(C2CCN(C(=O)NC(C)C)CC2)C(=O)C1=O | inactive: 0.0724% |  |
| Cc1ccc(CC2C(=O)N(c3ccc(F)cc3)C(=O)C2C)cc1 (centres undefined) | inactive: -5.78% |  |
| COc1cccc(CN2CCNC(=O)C2CC(=O)NCCn2ccc3ccccc32)c1OC (centres undefined) |  | inconclusive [inhibitor, single point] |
| COCCN(C(=O)CSc1cc(C)c2ccccc2n1)c1c(N)n(CC(C)C)c(=O)[nH]c1=O | inactive: -0.848% |  |
| CCCCc1c(O)nc(SCC(=O)c2ccccc2)n(-c2ccccc2OC)c1=O |  | active: 8.2 µM |
| Cc1ccc(OCC(=O)N2CC3(C)CC2CC(C)(C)C3)cc1 (centres undefined) |  | inconclusive [inhibitor, single point] |
| COC(=O)c1cc(Br)c(=O)n(Cc2ccc(OC)c(OC)c2)c1 | inactive: -27.3% |  |
| CCCCn1c(=O)c2c(nc3n2CCCN3Cc2ccccc2)n(C)c1=O |  | active: 23.1 µM |
| CCOc1cc(C(=O)NCc2ccc(-c3nc4ccccc4o3)cc2)cc(OCC)c1OCC |  | inconclusive [inhibitor, single point] |
| CC(=O)OCC1(C)CN(c2ccccc2)N(C(C)=O)C1=O (centres undefined) |  | active: 20.6 µM |
| CCOC(=O)CC(=O)CSc1nnc2c(n1)[nH]c1ccccc12 |  | inconclusive [inhibitor, single point] |
| COc1ccc(OC)c(NC(=O)C2CCN(C(=O)c3cccs3)CC2)c1 | inactive: -17.1% |  |
| CCOC(=O)c1cc2c(=O)n3cccc(C)c3nc2n(CC(C)C)c1=NC(=O)c1ccco1 |  | active: 20.6 µM |
| CC(=O)Nc1ccc(CN(C)CC2CCCN(CCc3cccc(C(F)(F)F)c3)C2)cc1 (centres undefined) |  | inconclusive [inhibitor, single point] |
| O=C(Cc1cccc2ccccc12)NNC(=O)Nc1ccc(Cl)cc1 |  | inconclusive [inhibitor, single point] |
| Cc1nn(Cc2ccccc2Cl)c(C)c1C(=O)NC1=NCCS1 | inactive: -14.6% |  |
| OC(CN1CCOCC1)c1ccc(F)cc1 (centres undefined) | inactive: -5.56% |  |
| COc1ccc(CCNC(=O)C/C(C)=N/NC(=O)Cc2cccc3ccccc23)cc1OC |  | inconclusive [inhibitor, single point] |
| O=C(NNC(=S)NC(=O)c1cccnc1)c1ccc(F)cc1 |  | inconclusive [inhibitor, single point] |
| O=C(CCNC(=O)c1ccccc1Cl)NNC(=O)c1ccccc1O |  | inconclusive [inhibitor, single point] |

— PubChem BioAssay AID686978 (National Center for Advancing Translational Sciences (NCATS), 2013)
